Experimental data reported in the supplement of paper PMC6531468.
This is one part of the list. These are enrichments in a pooled selection; single values are uncertain. Scores sum up all selected molecules that hold the word; the word was not tested alone.

Legend:
Test in all cases: 6-mer SELEX enrichment z-score vs GST control; IMP3 is the RNA-binding protein IGF2BP3; higher = more enriched by binding
IMP3 KH1-4 = conditions: construct: KH1-4 (164-579); SELEX round: R4
Experimental: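 SELEX-seq with GST-tagged IMP3 KH1-4 (Pro164-Lys579) and an N40 RNA pool, round 4. 6-mer z-score of sequence-tag enrichment normalised to the corresponding GST SELEX round; RNA k-mers written as DNA (T for U).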

IMP3 RRM1-2 = conditions: construct: RRM1-2 (1-163); SELEX round: R2
Experimental: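 SELEX-seq with GST-tagged IMP3 RRM1-2 (Met1-Asn163) and an N40 RNA pool, round 2. 6-mer enrichment z-score normalised to GST SELEX. RNA written as DNA (T = U).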

IMP3 full-length = IMP3 full-length (UniProt O00425); conditions: construct: FL IMP3 (1-579); SELEX round: R4
Experimental: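 SELEX-seq with GST-tagged full-length IMP3 and an N40 RNA pool, round 4. Each 6-mer is scored as an enrichment z-score of sequence tags containing it, normalised to the matching GST SELEX round. RNA written as DNA (T = U).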

IMP3 KH1-2 = conditions: construct: KH1-2 (164-376); SELEX round: R4
Experimental: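 SELEX-seq with GST-tagged IMP3 KH1-2 (Pro164-Phe376) and an N40 RNA pool, round 4 (stringent 300/600 mM KCl washes). 6-mer z-score of sequence-tag enrichment normalised to the corresponding GST SELEX round; RNA k-mers written as DNA (T for U).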

IMP3 KH3-4 = conditions: construct: KH3-4 (377-579); SELEX round: R4
Experimental: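 SELEX-seq with GST-tagged IMP3 KH3-4 (Pro377-Lys579) and an N40 RNA pool, round 4. 6-mer z-score of sequence-tag enrichment normalised to the corresponding GST SELEX round; RNA k-mers written as DNA (T for U).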

IMP3 KH3-4, sequence (chain, as listed by the source): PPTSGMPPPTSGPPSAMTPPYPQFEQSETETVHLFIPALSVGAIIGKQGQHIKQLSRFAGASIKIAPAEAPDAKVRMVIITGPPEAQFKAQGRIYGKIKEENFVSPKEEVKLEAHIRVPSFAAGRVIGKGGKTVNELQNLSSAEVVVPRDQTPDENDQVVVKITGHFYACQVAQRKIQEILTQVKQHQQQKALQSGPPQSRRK
IMP3 KH1-2, sequence (chain, as listed by the source): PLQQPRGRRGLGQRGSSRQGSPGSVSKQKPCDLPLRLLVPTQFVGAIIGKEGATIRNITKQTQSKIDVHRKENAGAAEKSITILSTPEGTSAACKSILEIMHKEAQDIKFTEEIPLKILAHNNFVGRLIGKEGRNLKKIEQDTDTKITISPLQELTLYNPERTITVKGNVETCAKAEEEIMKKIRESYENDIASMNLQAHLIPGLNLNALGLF
IMP3 RRM1-2, sequence (chain, as listed by the source): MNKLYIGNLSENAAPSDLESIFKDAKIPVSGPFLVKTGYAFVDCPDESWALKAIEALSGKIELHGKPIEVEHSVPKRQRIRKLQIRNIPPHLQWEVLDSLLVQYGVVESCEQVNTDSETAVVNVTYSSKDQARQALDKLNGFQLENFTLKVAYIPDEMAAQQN
UniProt O00425, sequence (O00425 whole entry): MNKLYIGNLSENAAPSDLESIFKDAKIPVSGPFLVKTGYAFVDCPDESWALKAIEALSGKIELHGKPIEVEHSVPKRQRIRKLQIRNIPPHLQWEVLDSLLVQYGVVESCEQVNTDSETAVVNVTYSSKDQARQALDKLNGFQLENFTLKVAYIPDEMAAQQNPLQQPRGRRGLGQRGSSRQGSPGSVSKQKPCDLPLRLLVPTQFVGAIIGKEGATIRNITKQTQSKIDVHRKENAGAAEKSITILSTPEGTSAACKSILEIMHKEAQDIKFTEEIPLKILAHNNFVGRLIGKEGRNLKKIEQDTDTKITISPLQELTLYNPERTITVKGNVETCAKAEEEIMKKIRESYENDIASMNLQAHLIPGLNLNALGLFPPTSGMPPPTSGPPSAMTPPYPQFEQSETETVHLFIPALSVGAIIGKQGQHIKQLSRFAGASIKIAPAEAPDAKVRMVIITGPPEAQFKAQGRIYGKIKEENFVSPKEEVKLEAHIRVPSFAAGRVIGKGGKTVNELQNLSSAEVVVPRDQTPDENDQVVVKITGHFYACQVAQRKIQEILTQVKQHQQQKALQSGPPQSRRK
IMP3 KH1-4, sequence (chain, as listed by the source): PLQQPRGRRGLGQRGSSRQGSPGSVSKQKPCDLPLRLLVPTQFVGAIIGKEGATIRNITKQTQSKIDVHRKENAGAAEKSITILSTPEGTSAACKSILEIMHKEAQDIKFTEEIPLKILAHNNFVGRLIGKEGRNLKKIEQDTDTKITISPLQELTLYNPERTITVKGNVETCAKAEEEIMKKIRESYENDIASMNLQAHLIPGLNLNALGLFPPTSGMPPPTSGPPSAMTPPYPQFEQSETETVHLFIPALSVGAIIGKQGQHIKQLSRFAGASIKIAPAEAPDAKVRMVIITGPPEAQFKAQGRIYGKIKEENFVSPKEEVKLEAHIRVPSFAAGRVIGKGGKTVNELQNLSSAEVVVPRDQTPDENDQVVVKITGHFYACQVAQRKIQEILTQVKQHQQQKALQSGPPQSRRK

Row | Sequence | 6-mer SELEX enrichment z-score (IMP3 KH1-4) | 6-mer SELEX enrichment z-score (IMP3 RRM1-2) | 6-mer SELEX enrichment z-score (IMP3 full-length) | 6-mer SELEX enrichment z-score (IMP3 KH1-2) | 6-mer SELEX enrichment z-score (IMP3 KH3-4)
1 | GATGCT | 0.099 | -0.196 | -0.034 | 0.09 | 0.188
2 | ATGGGT | 0.311 | 0.308 | 0.183 | 0.307 | 0.537
3 | GTATAG | 0.312 | -0.006 | -0.014 | 0.211 | 0.516
4 | GGGCGC | -0.795 | 0.15 | 0.284 | -0.372 | -0.523
5 | AGTTCG | -0.001 | 0.309 | 0.111 | -0.09 | 0.089
6 | AAAGGT | -0.409 | -0.75 | -0.528 | -0.483 | -0.057
7 | GCTGCT | 0.366 | 0.238 | 0.236 | 0.353 | 0.269
8 | AGACTG | -0.108 | -0.754 | -0.619 | -0.161 | -0.17
9 | TATGCT | 0.465 | 0.079 | 0.03 | 0.372 | 0.528
10 | ACTGGT | -0.147 | 0.107 | -0.111 | -0.172 | -0.164
11 | CCATTA | 1.07 | 0.539 | 0.46 | 0.947 | 0.888
12 | AAGCAG | 0.13 | 0.036 | 0.339 | 0.067 | 0.12
13 | CTCTGG | -0.409 | 0.262 | 0.011 | -0.342 | -0.27
14 | TCGCAT | 0.748 | 0.546 | 0.766 | 0.538 | 0.422
15 | TCTATG | 0.125 | 0.223 | -0.01 | 0.12 | 0.265
16 | GAAGTA | -0.141 | -0.69 | -0.564 | -0.294 | 0.099
17 | ACTTTT | 1.01 | 0.205 | 0.089 | 1.01 | 1.17
18 | GTATGC | -0.082 | 0.081 | -0.115 | -0.162 | -0.065
19 | CGCTAC | 0.105 | 0.049 | 0.063 | 0.254 | -0.128
20 | CCTCGC | -0.829 | -0.125 | -0.273 | -0.508 | -1.03
